# Source: PubChem BioAssay AID686971 (National Center for Advancing Translational Sciences (NCATS), 2013)
# In all, about 360,000 compounds went through this assay and about 7,500 (2.1%) were called active. This list was built around the results that the source calls inconclusive (neither active nor inactive); the mix of calls is not that of the screen. The call rests on the fitted dose curve; in most records, active means well fitted cell-killing curve with a large enough effect; inconclusive means small, poorly fitted or top-dose-only effect, or effect the other way, or another doubt; inactive means no such curve, though single readings can be large or run the other way. No potency is given beside an inconclusive call; the fits are too rough.
# Assay: qHTS for induction of synthetic lethality in tumor cells producing 2HG: qHTS for the HT-1080-IDH1KD cell line;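 on activity, negative = toxicity: 0% = DMSO wells and -100% = cell-free medium wells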
# Conditions: HT-1080 IDH1 knockdown viability, ATP luminescence, 48 h; activity, negative = toxicity: at 46.1 µM (top of the series) unless noted
# Procedure, shortened: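 HT-1080-IDH1KD cells (IDH1 knocked down), 750/well in RPMI with 5% FBS, treated with compound 48 h at 37 degrees C. Viability by CellTiter-Glo luminescence, normalised to DMSO and no-cell wells; concentration-response curves classed.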
# Potency means the concentration at half of the fitted maximal effect; tags describe the fitted curve by direction and shape.
Compound,"activity, negative = toxicity",Potency
O=c1[nH][nH]cc1C=Nc1ccccc1O,inactive: -26.5%,
O=C1CC(SCCc2nc3ccccc3[nH]2)C(=O)N1c1ccc(F)c(Cl)c1 (stereo not drawn),inactive: 0.865%,
CS(=O)(=O)n1nc(OC(=O)c2cccc3ccccc23)cc1N,,"inconclusive [cytotoxic, single point]"
O=C(c1ccc(S(=O)(=O)c2ccccc2Cl)c([N+](=O)[O-])c1)N1CCN(Cc2ccccc2)CC1,,"inconclusive [cytotoxic, single point]"
C[C@@H]1CCCCO[C@H](CN(C)C(=O)c2ccccc2)[C@@H](C)CN([C@H](C)CO)C(=O)c2cc(NC(=O)c3ccncc3)ccc2O1,inactive: 14.1%,
NC(=O)c1ccccc1N=Cc1ccc2ccccc2c1,,"inconclusive [cytotoxic, single point]"
CC1CCc2c(sc3nc(C(C)(C)C)nc(N4CCN(C(=O)CCl)CC4)c23)C1 (stereo not drawn),,active: 4.61 µM
COC(=O)c1ccccc1S(=O)(=O)N(CCCO)Cc1cc2c(C)ccc(C)c2[nH]c1=O,,"inconclusive [cytotoxic, single point]"
Cn1c(SCc2nc(-c3ccc(Cl)cc3)no2)nnc1-c1cccs1,inactive: 0.146%,
CC(C)N1CCc2c(sc(NC(=O)c3cc(-c4cccs4)nc4ccccc34)c2C(N)=O)C1,,"inconclusive [cytotoxic, single point]"
CCOC(=O)CSC1=C(C#N)C(c2ccccc2OC)CC(=O)N1 (stereo not drawn),,active: 18.4 µM
COc1ccc(N(CC(=O)Nc2ccccc2C(=O)N2CCCC2)S(C)(=O)=O)cc1,inactive: 23.1%,
CCOc1ccc(-c2[nH]ncc2Oc2cccc(OC)c2)c(O)c1,,"inconclusive [cytotoxic, single point]"
COc1ccc(Cl)cc1NC(=O)Cn1cccc1,inactive: -3.72%,
COc1ccc(-c2ccc(CCC(=O)O)n2-c2ccccc2OC)cc1,,active: 16.4 µM
O=C(Oc1c(CN2CCOCC2)cc(Cl)c2cccnc12)c1ccccc1F,,"inconclusive [cytotoxic, full curve, poor fit]"
CCOC(=O)[C@]12CCCC=C1N(Cc1ccc3c(c1)OCO3)C(=O)[C@H](CC(=O)NCc1cccc(C(F)(F)F)c1)C2,,active: 16.4 µM
Cc1cc(C)c2sc(NNC(=O)c3ccc(S(=O)(=O)N4CCc5ccccc5C4)cc3)nc2c1,,"inconclusive [cytotoxic, full curve]"
C(=C\c1nc(N2CCCCCC2)c2ccccc2n1)/c1ccccc1,,"inconclusive [cytotoxic, single point]"
Cc1ccc(C(=O)N2CCN(c3cccc(C)c3C)CC2)o1,,"inconclusive [cytotoxic, single point]"
CC(C)c1ccc(OCC(O)CNC(C)c2ccccc2)cc1 (stereo not drawn),,active: 18.4 µM
Cc1onc(-c2ccccc2Cl)c1C(=O)Nc1ccc(-c2cn3cccnc3n2)cc1,inactive: -5.18%,
O=C(Nc1cccc(S(=O)(=O)N2CCCCC2)c1)Nc1ccc(Cl)cc1Cl,,active: 16.4 µM
COc1cc(NC(=O)C2(C)CCN2C(=O)C(C)C)cc(OC)c1OC (stereo not drawn),,"inconclusive [rising, single point]"
COC(=O)c1cc(CC(=O)c2ccc(O)cc2O)c(C)o1,,"inconclusive [cytotoxic, single point]"

Compound,"activity, negative = toxicity",Potency
O=C(N/N=C/c1ccc(OC(=O)c2cccs2)cc1)c1cccc(F)c1,inactive: -26.7%,
O=C(CCN1CCCCC1)c1ccc2c(c1)OCO2,inactive: -2.25%,
COc1ccc(/C=N/OC(=O)Nc2ccccc2OC)cc1,,active: 5.8 µM
CCC(=O)Nc1ccc(/C(C)=N\NS(=O)(=O)c2ccc(C)cc2)cc1,inactive: 2.47%,
Cc1ccc2c(c1)C(c1ccc(F)cc1)N(C(=O)c1ccccc1Br)CC(=O)N2 (stereo not drawn),,"inconclusive [cytotoxic, single point]"
CN1CCN(S(=O)(=O)c2ccc(C#N)cc2)C(c2ccccc2)C1 (stereo not drawn),inactive: 9.98%,
CN1CCN(C(=O)CCN2C(=O)/C(=C\c3ccccc3F)SC2=S)CC1,,"inconclusive [cytotoxic, single point]"
CCOc1nc(-c2ccccc2)ncc1Oc1ccccc1,inactive: -2.39%,
CC(C)c1ccc(C2(C)NC(=O)N(C(C)C(=O)Nc3ccc(N4CCOCC4)cc3)C2=O)cc1 (stereo not drawn),inactive: -15.2%,
O=C1NC(=S)SC1=Cc1ccccc1Br,,"inconclusive [cytotoxic, single point]"
Oc1ccc(-c2[nH]ncc2-c2cccc3cccnc23)c(O)c1,,"inconclusive [cytotoxic, single point]"
O=S(=O)(NC1CCCC1)c1cccc(-c2nnc(-c3ccccc3)o2)c1,,"inconclusive [cytotoxic, single point]"
Nc1c(C(=O)NCCN2CCOCC2)c2nc3ccccc3nc2n1CCc1ccccc1,,"inconclusive [cytotoxic, single point]"
Cc1[nH]nc(Nc2ccc(C(C)C)cc2)c1[N+](=O)[O-],,"inconclusive [cytotoxic, single point]"
Cn1cccc1C(=O)C(=O)Nc1ccccc1,,"inconclusive [cytotoxic, single point]"
CC(Nc1nc(-c2cccc(Br)c2)cs1)c1nc2cc(Cl)c(N3CCCCC3)cc2n1CCOCCO (stereo not drawn),,"inconclusive [cytotoxic, single point]"
COc1ccc(CN2CCN(C(=O)c3ccc(S(=O)(=O)NCc4ccco4)cc3)CC2)cc1,,"inconclusive [cytotoxic, single point]"
O=C(CSc1ccc(-c2ccc(F)cc2)nn1)N1CCCCC1,,"inconclusive [cytotoxic, single point]"
O=c1c2ccccc2sn1-c1ccccc1,,active: 16.4 µM
O=C(c1cc(-c2ccccc2Cl)nc2ccc(Br)cc12)N1CCN(c2ccccn2)CC1,inactive: -27.2%,
CCOC(=O)c1cnc2ccc(C(=O)OC)cc2c1Nc1ccc(C(=O)O)cc1,inactive: -28.7%,
Cn1c(N)c(C(=O)COC(=O)c2ccccc2C(=O)c2ccc(Cl)cc2)c(=O)n(C)c1=O,,"inconclusive [cytotoxic, partial curve]"
C[C@H](NC(=O)[C@@H]1CCCN1C(=O)[C@@H]1CCCN1)c1ccccc1,inactive: -0.334%,
COc1ccc(C(C)=NNc2ccc([N+](=O)[O-])cc2S(=O)(=O)Nc2ccccc2C(=O)O)c(OC)c1,,"inconclusive [cytotoxic, partial curve]"
COc1ccc(OC)c(N(CC(=O)Nc2cccnc2)S(=O)(=O)c2ccccc2)c1,,active: 3.26 µM

Compound,"activity, negative = toxicity",Potency
FC(F)Sc1ccc(NC(=S)NC2CCCC2)cc1,inactive: -17.2%,
O=C1Nc2ccccc2-c2nnnn2C1N1CCC(Cc2ccccc2)CC1 (stereo not drawn),,"inconclusive [cytotoxic, single point]"
COC(=O)c1ccc(C(=O)OC)c(NC(=O)CN2CCCCC2)c1,inactive: 17.7%,
Cc1cccc(C)c1-n1cccc1/C=C1\SC(=S)N(c2cccc(C(=O)O)c2)C1=O,,"inconclusive [cytotoxic, single point]"
O=C(C[C@H]1CC[C@@H]2[C@H](COC[C@H](O)CN2Cc2cccc(C(F)(F)F)c2)O1)NCCc1ccccc1,,"inconclusive [cytotoxic, single point]"
COc1ccc(C(=O)/C(=C/O)N=Nc2ccc(F)cc2)cc1,,"inconclusive [cytotoxic, single point]"
CCC(=O)Nc1cc(C(=O)O)ccc1Sc1ccc(C)cc1,inactive: 3.75%,
Cc1ccccc1OCCn1c(=S)[nH]c2ccccc21,,"inconclusive [cytotoxic, single point]"
Cc1ccc(CSc2nc3ccccc3cc2C=O)cc1,,active: 6.51 µM
CC(C)N1CCC1(C)C(=O)Nc1cccc(C#N)c1 (stereo not drawn),,"inconclusive [rising, partial curve]"
CC(=O)Nc1cccc(OCCCNC(=O)c2ccc(C(C)(C)C)cc2)c1,,active: 14.6 µM
COc1ccc(CC(=O)Nc2nc(C)cs2)cc1OC,,"inconclusive [cytotoxic, partial curve]"
N#Cc1c(-c2ccccc2)c(-c2ccccc2)nn(CC(=O)NNC(=O)Nc2ccccc2)c1=O,,active: 3.26 µM
CCc1nnc(N/N=C/c2cc(Br)c(O)cc2O)n1N,,"inconclusive [cytotoxic, single point]"
CCN1CCN(S(=O)(=O)c2ccc(Cl)c(C(=O)NC3CCCCC3)c2)CC1,inactive: 10.1%,
COc1ccc(/C=C/c2noc(-c3ccccc3O)n2)cc1,inactive: -28.5%,
CC(=O)c1ccc(-n2c(C)ccc2-c2ccccc2)cc1,,"inconclusive [cytotoxic, single point]"
COc1cccc(CNC(=O)COC(=O)c2ccc(C(=O)c3ccccc3)cc2)c1,inconclusive: -35.1% [cytotoxic],
CCOC(=O)c1c(-c2ccco2)csc1NC(=O)CSc1nnc(N)s1,,"inconclusive [cytotoxic, single point]"
CCc1nc2ccc(C(=O)NCc3ccccc3OC)cn2c1N(CCC(C)C)CCN(C)C,,"inconclusive [cytotoxic, single point]"
CCN(CC)CCNC(=O)c1ccc(NC(=O)c2ccc(COc3ccccc3)cc2)cc1,,"inconclusive [cytotoxic, single point]"
CCCCN(C)CCNC(=O)c1cc2c(-c3cccc(OC)c3)nn(C)c2s1,,active: 23.1 µM
CC(C)NCC(O)COC1CCC(C(C)(C)C)CC1 (stereo not drawn),,"inconclusive [cytotoxic, partial curve]"
